# Among all 310,000 compounds or so, about 2,200 (0.71%) showed an effect of 50% or more. The effect is printed as a negative number. This is one part of the list.
# Target: human ether-à-go-go-related gene (hERG) potassium channel (human, UniProt Q12809)
# Assay: primary screen, population patch clamp on CHO cells stably expressing hERG
# Chain of human ether-à-go-go-related gene (hERG) potassium channel (Q12809 whole entry, looked up): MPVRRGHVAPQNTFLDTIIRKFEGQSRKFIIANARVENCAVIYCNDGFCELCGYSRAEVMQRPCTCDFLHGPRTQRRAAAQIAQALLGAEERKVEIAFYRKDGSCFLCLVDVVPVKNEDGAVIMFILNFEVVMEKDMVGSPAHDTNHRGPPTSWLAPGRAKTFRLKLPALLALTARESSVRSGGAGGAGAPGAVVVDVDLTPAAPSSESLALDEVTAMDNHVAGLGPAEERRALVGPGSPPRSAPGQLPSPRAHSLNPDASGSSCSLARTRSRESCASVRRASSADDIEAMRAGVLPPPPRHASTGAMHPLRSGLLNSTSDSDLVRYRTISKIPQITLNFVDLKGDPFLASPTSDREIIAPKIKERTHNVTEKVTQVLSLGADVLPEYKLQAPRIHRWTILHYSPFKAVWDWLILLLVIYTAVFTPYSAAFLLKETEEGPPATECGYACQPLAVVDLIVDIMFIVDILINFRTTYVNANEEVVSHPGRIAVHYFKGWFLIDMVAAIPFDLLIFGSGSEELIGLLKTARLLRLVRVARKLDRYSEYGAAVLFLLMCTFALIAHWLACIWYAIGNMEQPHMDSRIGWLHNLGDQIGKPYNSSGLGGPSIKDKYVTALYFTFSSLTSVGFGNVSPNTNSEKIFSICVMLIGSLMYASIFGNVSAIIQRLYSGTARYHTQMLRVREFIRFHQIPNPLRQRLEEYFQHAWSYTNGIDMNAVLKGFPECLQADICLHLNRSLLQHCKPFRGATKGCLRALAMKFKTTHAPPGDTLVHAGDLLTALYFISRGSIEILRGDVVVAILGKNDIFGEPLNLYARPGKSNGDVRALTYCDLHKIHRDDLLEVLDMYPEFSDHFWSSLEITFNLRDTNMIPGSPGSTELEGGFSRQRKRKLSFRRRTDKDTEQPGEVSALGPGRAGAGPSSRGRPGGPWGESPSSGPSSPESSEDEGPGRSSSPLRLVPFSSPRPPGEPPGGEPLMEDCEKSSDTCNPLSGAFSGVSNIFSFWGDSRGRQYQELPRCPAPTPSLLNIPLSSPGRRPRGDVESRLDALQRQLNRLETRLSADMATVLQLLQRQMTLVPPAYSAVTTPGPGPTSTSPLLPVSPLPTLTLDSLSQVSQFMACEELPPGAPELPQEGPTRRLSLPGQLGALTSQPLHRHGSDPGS
row,Structure (SMILES),"hERG current change (%, negative = inhibition) at 1uM"
1,O=C(CCCN1C(=O)c2cccnc2C1=O)N1CC(=O)N(CCc2ccccc2)C(=O)C1,6.24%
2,CN/C(=C/[N+](=O)[O-])NCCSCc1csc(CN(C)C)n1,12%
3,O=C(Cc1cccs1)N1CCN=C1SCc1ccccc1F,-0.585%
4,Cc1ccccc1C(=O)Oc1ccc(-c2csnn2)cc1,18%
5,O=C(NCC1CCCN(Cc2nccs2)C1)c1cccc2ccccc12 (stereo not drawn),8.65%
6,COC(=O)c1cc(S(=O)(=O)N(C)c2ccc(C)c(C)c2)c[nH]1,6.8%
7,CNC(=O)C(Sc1ccccc1)c1ccccc1 (stereo not drawn),9.27%
8,Cc1cc(N2CCCCCC2)n2nc(C)c(-c3ccccc3)c2n1,15.6%
9,C#CC(C)(CC)NC(=O)Cn1nnc(-c2ccc(S(C)(=O)=O)cc2)n1 (stereo not drawn),4.43%
10,CSc1ccccc1NC(=O)COc1ccc(Cl)cc1C,5.08%
11,CCCCc1nc(SCC(=O)Nc2nnc(C(C)C)s2)n[nH]1,14.1%
12,O=C(NNC(=S)NC(=O)c1ccc(Br)cc1)c1cccc([N+](=O)[O-])c1,7.73%
13,Cc1c(Cl)cnc(NC(=O)COC(=O)[C@H](C)NC(=O)c2ccccc2)c1Cl,12.3%
14,C=CCNC(=S)NNC(=O)C(CCCC)CC(C)(C)O (stereo not drawn),0.767%
15,O=C(CSc1n[nH]c(-c2ccccn2)n1)Nc1ccc(Cl)cc1,10%
16,COCCCNC(=S)Nc1cc2oc3ccccc3c2cc1OC,-0.116%
17,Cc1nn(CC(O)Cn2c3c(c4ccccc42)CCN(C)C3=O)c(C)c1Br (stereo not drawn),1.36%
18,C(=C\c1ccccn1)/c1ccncc1,9.6%
19,COC(=O)CSc1cc(C(F)(F)F)nc(-c2ccccn2)n1,17.4%
20,CCOC(=O)C1=C(C)NC(C)=C(C(=O)OCC)C1C(=O)OCC(=O)N1CCCCC1CC (stereo not drawn),10.6%
21,CCOC(=O)c1cc(/C(C)=N/OC(=O)c2ccc(C(C)(C)C)cc2)on1,9.61%
22,COc1ccc(Nc2cc(Cl)nc(N)n2)cc1,17%
23,Cc1ccc(NC(=O)COC(=O)CCc2ccccc2)c(Cl)c1,21.2%

row,Structure (SMILES),"hERG current change (%, negative = inhibition) at 1uM"
1,O=C(NC12CC3CC(CC(C3)C1)C2)N1CC2Cc3cccc(=O)n3C(C2)C1 (stereo not drawn),14.3%
2,CC(C)(C)c1ccc(/C=C(\C#N)C(=O)NCCN2CCOCC2)cc1,2.39%
3,Cn1c(=O)cc(OCC(=O)NCCC2=CCCCC2)c2ccccc21,6.25%
4,C/C(=N\NC(=O)c1nnn(-c2nonc2N)c1-c1ccc2c(c1)OCO2)c1cccs1,6.13%
5,CCCCNC(=O)CN1C(=O)NC2(CCCc3ccccc32)C1=O (stereo not drawn),5.45%
6,CCOC(=O)c1cc([N+](=O)[O-])sc1NC(=O)CC,-2.81%
7,CCOC(=O)Cn1c(=O)oc2cc(S(=O)(=O)N3CCCC(C(=O)OCC)C3)ccc21 (stereo not drawn),8.15%
8,CC(NS(=O)(=O)c1ccc(F)cc1)C(c1cccs1)N1CCOCC1 (stereo not drawn),11%
9,CCc1cc(C(=O)O)c(NC(=O)/C=C/c2ccc(OC)cc2)s1,19%
10,O=Cc1ccc(N2CCCCCC2)cc1,8.69%
11,O=[N+]([O-])c1cccc(Nc2c3ccccc3nc3ccccc23)c1,11.4%
12,CCOc1cc(C2C(C(C)=O)=C(O)C(=O)N2CCc2c[nH]c3ccccc23)ccc1O (stereo not drawn),14.7%
13,O=C1Nc2ccc(S(=O)(=O)N3CCCC3)c3ccc(S(=O)(=O)N4CCCC4)c1c23,-1.32%
14,Cc1ccccc1NC(=O)CSc1nnc(CNC(=O)c2ccco2)n1C,-0.407%
15,COCC1CCCCN1C(=O)c1ccc(OC2CCN(CCc3ccccc3)CC2)cc1 (stereo not drawn),-13.2%
16,Cl.O=C(Nc1cc(F)cc(F)c1)c1ccc(NCCCN2CCCCCC2)c([N+](=O)[O-])c1,-7.14%
17,COC(=O)c1ccc(Nc2nc(-c3ccncc3)nc3ccccc23)cc1,17.6%
18,CCN(CC(=O)Nc1ccccc1C(F)(F)F)C(=O)C1=COCCO1,15.6%
19,O=C(Cn1cnc2ccccc21)OCC(=O)N1CCCc2ccccc21,14.9%
20,CCCCNC(=O)c1cn(CC)c2ccc(S(=O)(=O)N3CCCC3)cc2c1=O,6.36%
21,Cc1ccc(C(OCC(O)CNC(C)c2ccccc2)c2ccccc2)cc1 (stereo not drawn),-2.79%
22,CCN1CCN(S(=O)(=O)c2ccc(Cl)c(C(=O)N(CC)CC(=O)Nc3ccc(OC)cc3)c2)CC1,15.3%
23,COc1cc(CCC(=O)OCn2nnc3ccccc3c2=O)cc(OC)c1OC,13.7%

row,Structure (SMILES),"hERG current change (%, negative = inhibition) at 1uM"
1,Cc1cc(NC(=O)CCC(=O)N(CC(=O)NC2CCCC2)Cc2ccccc2Cl)no1,12.6%
2,c1ccc(Nc2c(-c3ccco3)nc3ccccn23)cc1,9.85%
3,C#Cc1ccc([C@@H]2C=C(C(=O)NC3CC3)O[C@H](OCCCCO)C2)cc1,12.2%
4,Cc1ccc(S(=O)(=O)n2cnc3ccccc32)c(C)c1,2.96%
5,CC(=O)c1c(C)[nH]c(C(=O)Nc2nccs2)c1C,3.07%
6,CC(C)CN(C(=O)COC(=O)COc1ccc2c(c1)CCC2)c1c(N)n(Cc2ccccc2)c(=O)[nH]c1=O,14.8%
7,O=C1c2cccc3cccc(c23)C(=O)N1c1ccc(O)cc1,10.1%
8,Cc1c(C#N)c(SCC(N)=O)nc2c1CCCC2,2.32%
9,CCS(=O)(=O)N1CCN(CC2CC3C=CC2C3)CC1 (stereo not drawn),14.9%
10,Cc1nn(-c2ccccc2)c2c1CC1(C(=O)N(C)C(=O)N(C)C1=O)C1CCCCN21 (stereo not drawn),16.5%
11,Cc1cccc(NC(=O)CCCc2ccccc2)c1C,8.97%
12,O=c1[nH]c(Cc2ccccn2)nc2scc(-c3ccc(Cl)cc3)c12,12.3%
13,O=C(CSc1nnc(NC(=O)C2CC(=O)N(c3ccccc3)C2)s1)NC1CCCC1 (stereo not drawn),5.63%
14,Cn1c(SCC(=O)NCc2ccccc2)nc2c([nH]c3ccccc32)c1=O,8.98%
15,O=C(O)C1CCN(Cc2cnn(-c3ccccc3)c2-n2cccc2)CC1,5.96%
16,COc1ccc(CCNC(=O)C2CC(c3ccccc3[N+](=O)[O-])=NO2)cc1 (stereo not drawn),2.1%
17,CCc1cccc2sc(N3CCN(C(=O)c4ccc([N+](=O)[O-])o4)CC3)nc12,-8.03%
18,CCCCn1c(-c2csc(CC)c2)n[nH]c1=S,16.8%
19,NS(=O)(=O)c1ccc(CCNC(=O)CNC(=O)C2CCCCC2)cc1,14.4%
20,C=C(C)C(=O)Nc1cccc(C2=NOC3(C2)C[C@H](C(N)=O)N(C(=O)/C=C/C)C3)c1 (stereo partly drawn),8.88%
21,COc1ccc(C(=O)N2CCN(C(=O)c3ccc(-c4ccccc4)cc3)CC2)cc1OC,4.46%
22,O=C(O)c1ccccc1SC1CC(=O)N(C2CCCCC2)C1=O (stereo not drawn),7.63%
23,Cc1ccccc1-n1c(SCc2c(C)noc2C)nnc1-c1ccncc1,10.2%

row,Structure (SMILES),"hERG current change (%, negative = inhibition) at 1uM"
1,CCOC(=O)CSc1ccc(C(=O)Nc2ccc(Cl)cc2)cn1,11.6%
2,COc1ccc2cc3c(N)nn(C(=O)c4ccc(Cl)c([N+](=O)[O-])c4)c3nc2c1,6.35%
3,CCC(Oc1ccccc1OC)C(=O)N1CC(=O)Nc2ccccc21 (stereo not drawn),2.9%
4,O=C(CSc1nnc(CNC(=O)c2cccs2)o1)Nc1ccc(Cl)cc1,9.65%
5,CCOCC(=O)Nc1ccccc1C(=O)O,15.2%
6,Cc1ccc(C2CC(=O)NC(SCc3ccccc3)=C2C#N)cc1 (stereo not drawn),14.6%
7,O=C(Nc1cccc(Cl)c1N1CCCCC1)c1ccc2c(c1)OCCO2,11.8%
8,COc1cc(/C=N/n2nnnc2N)ccc1OCC#N,17.1%
9,COc1ccc(C(C)C)cc1S(=O)(=O)N1CCC(C(=O)NCC2CCCO2)CC1 (stereo not drawn),8.66%
10,CC(=O)c1cnc2nc(C(F)(F)F)nn2c1C,6.36%
11,CC(=O)C(Sc1nn(C)c(=S)s1)C(=O)Nc1ccccc1 (stereo not drawn),2.83%
12,COc1ccc(-c2onc3ccc(C(C)=O)cc23)cc1,4.32%
13,O=C(COc1ccc2c(-c3ccccc3)cc(=O)oc2c1)Nc1ccc(CCO)cc1,7.49%
14,O=c1c2ccc([N+](=O)[O-])cc2ncn1CCOc1cccc(Br)c1,8.55%
15,Cc1ccccc1-n1c(SCC(=O)c2c(N)n(C)c(=O)n(C)c2=O)nnc1-c1cccnc1,8.77%
16,CCC(C)C(NC(=O)/C(=C\c1ccccc1)NC(=O)c1ccc(OC)cc1)C(=O)O (stereo not drawn),20%
17,CC(=O)Nc1cccc(CCc2nc3ccccc3[nH]2)c1,6.69%
18,COCC(=O)Nc1ccc2c(c1)OCC(=O)N2Cc1ccc(C)cc1,1.26%
19,Cc1nnc(SCCC(=O)Nc2ccccc2Cl)o1,7.85%
20,Cc1ccc(-c2nn3c(C)nnc3s2)cc1NC(=O)COc1ccc(Cl)cc1,-74.3%
21,O=C(CCS(=O)(=O)c1ccc(Br)cc1)NC1CCCC1,12.7%
